We go through four molecules from patent EP4603109A1 (Sichuan Kelun-Biotech Biopharmaceutical Co., Ltd., dated 2024).

The target in one assay is T1, rat B7-H3-his protein (rat, UniProt Q7TPB4 29-248, limits assumed).
T1 construct: not shown: His tag
T1 sequence (looked up): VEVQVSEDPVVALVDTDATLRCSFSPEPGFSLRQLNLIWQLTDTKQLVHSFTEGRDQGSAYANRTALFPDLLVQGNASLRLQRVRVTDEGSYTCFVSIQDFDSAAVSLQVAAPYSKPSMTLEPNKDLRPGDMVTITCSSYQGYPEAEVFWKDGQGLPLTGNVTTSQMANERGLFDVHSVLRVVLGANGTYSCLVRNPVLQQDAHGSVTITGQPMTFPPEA
As to the kind of experiment: BLI (ForteBio), ADC captured on Protein A sensor.

The target of the next assay is T2, rat B7-H3 on CHO-S cells (rat, UniProt Q7TPB4 29-316).
T2 construct: whole, on cells; also called CHO-S-rat B7-H3; CHOS-rat B7-H3
T2 sequence (looked up): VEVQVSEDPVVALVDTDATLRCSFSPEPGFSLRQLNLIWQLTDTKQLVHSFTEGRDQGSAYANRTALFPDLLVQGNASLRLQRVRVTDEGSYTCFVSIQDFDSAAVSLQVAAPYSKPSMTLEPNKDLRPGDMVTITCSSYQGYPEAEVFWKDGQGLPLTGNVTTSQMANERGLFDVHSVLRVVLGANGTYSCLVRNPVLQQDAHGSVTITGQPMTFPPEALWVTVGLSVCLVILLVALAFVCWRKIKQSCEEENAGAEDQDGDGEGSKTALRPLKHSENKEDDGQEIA
Kind of assay: flow cytometry on CHOS-rat B7-H3 cells. (Flow cytometry measures light scatter and fluorescence of single cells or particles in a stream.)

In assay [1] the target is T3, B7-H3 on human tumor cell lines (HT29, NCI-N87, HCC1806, HCC827, A375) (human, UniProt Q5ZPR3 29-534).
T3 construct: whole, on cells
T3 sequence (looked up): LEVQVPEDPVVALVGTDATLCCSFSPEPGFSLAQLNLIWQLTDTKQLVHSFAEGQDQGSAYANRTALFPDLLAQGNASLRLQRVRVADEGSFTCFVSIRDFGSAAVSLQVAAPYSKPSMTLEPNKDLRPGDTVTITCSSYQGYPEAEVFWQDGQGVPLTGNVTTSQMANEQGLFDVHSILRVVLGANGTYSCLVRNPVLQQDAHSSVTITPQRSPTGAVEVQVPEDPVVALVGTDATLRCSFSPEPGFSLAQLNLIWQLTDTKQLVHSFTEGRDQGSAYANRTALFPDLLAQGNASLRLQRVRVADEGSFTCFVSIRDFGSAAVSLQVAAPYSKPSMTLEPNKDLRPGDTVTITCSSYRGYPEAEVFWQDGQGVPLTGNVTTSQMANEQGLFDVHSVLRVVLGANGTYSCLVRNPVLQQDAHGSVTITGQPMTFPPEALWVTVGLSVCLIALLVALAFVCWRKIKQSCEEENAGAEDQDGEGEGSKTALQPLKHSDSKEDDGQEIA
As to the kind of experiment: flow cytometry on HT29 cells.

In assay [2] the target is T3, B7-H3 on human tumor cell lines (HT29, …). As to the kind of experiment: flow cytometry on NCI-N87 cells.
For assay [3], the target named is T4, human B7-H3-4Ig-his protein (human, UniProt Q5ZPR3 29-461, limits assumed).
T4 construct: not shown: His tag
T4 sequence (looked up): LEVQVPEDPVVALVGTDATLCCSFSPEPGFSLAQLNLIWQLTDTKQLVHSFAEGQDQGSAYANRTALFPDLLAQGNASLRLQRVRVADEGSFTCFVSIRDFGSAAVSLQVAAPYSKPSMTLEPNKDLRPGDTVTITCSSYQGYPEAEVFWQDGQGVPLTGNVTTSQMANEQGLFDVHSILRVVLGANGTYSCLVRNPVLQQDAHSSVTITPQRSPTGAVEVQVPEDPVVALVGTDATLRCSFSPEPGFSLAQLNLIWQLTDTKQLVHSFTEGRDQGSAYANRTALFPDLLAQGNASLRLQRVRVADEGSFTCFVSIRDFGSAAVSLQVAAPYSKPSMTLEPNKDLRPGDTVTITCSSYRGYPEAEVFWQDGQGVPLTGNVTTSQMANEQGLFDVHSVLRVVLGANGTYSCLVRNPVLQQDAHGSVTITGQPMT
As to the kind of experiment: BLI (ForteBio), ADC on Protein A sensor, antigen 200-3.125 nM, 1:1 global fit.

The target in assay [4] is T5, human B7-H3-2Ig-his protein (human, UniProt Q5ZPR3-2 29-245, limits assumed).
T5 construct: the 2Ig form is its isoform 2; not shown: His tag
T5 sequence (looked up): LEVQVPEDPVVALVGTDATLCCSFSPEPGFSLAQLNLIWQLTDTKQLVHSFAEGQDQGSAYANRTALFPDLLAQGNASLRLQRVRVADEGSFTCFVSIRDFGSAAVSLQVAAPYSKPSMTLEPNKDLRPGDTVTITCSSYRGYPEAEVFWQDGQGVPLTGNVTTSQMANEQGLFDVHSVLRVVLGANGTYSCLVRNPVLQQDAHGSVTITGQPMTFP
The description is as above.

For assay [5], the target named is T6, human Fc receptor protein CD32a (human, UniProt P12318 36-218, limits assumed, biotinylated (sites not given)).
T6 construct: Biotinylated protein captured on SA sensor
T6 sequence (looked up): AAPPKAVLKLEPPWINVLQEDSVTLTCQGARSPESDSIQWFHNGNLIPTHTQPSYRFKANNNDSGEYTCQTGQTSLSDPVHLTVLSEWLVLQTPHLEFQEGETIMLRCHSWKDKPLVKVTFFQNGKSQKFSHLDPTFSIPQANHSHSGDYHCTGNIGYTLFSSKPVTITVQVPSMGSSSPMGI
Kind of assay: BLI (ForteBio), biotinylated receptor on SA sensor. In general terms: In BLI a coated tip is dipped into the sample, and binding shifts an interference pattern.

For assay [6], the target named is T3, B7-H3 on human tumor cell lines (HT29, …). Kind of assay: flow cytometry on HCC827 cells.
Assay [7] shares this target. Kind of assay: flow cytometry on HCC1806 cells.
The target in the next assay is T7, human FcRn (human, UniProt P55899 fragment, biotinylated (sites not given)).
T7 construct: Biotinylated protein captured on SA sensor
Kind of assay: BLI (ForteBio), biotinylated FcRn on SA sensor, ADC from 5000 nM, 1:1 global fit.

Assay [8] concerns the target T8, B7-H3 on Calu6-B7-H3 and U87MG-B7-H3 cells.
T8 sequence (Q5ZPR3 1-534, species assumed, looked up): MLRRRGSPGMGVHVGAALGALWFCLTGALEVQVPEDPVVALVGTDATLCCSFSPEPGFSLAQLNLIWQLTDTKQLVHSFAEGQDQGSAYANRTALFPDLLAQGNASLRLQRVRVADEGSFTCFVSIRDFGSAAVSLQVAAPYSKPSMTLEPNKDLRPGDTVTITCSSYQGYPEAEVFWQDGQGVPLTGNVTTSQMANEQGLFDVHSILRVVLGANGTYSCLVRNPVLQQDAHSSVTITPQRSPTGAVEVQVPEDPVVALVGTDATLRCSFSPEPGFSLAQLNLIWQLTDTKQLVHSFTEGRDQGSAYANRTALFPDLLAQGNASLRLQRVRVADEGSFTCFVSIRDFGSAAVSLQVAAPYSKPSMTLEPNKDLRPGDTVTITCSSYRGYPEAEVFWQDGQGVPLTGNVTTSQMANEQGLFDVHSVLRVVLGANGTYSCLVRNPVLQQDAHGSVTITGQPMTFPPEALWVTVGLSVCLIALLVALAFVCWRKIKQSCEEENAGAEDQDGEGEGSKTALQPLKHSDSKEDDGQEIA
As to the kind of experiment: cell-based or functional assay.

Assay [9] deals with T3, B7-H3 on human tumor cell lines (HT29, …). Kind of assay: cell-based or functional assay.
Assay [10] addresses T9, human B7-H3-4Ig on CHO-S cells (human, UniProt Q5ZPR3 29-534).
T9 construct: whole, on cells; also called CHO-S-human B7-H3-4Ig; CHOS-human B7-H3-4Ig
T9 sequence (looked up): T3 sequence (looked up)
Kind of assay: flow cytometry on CHOS-human B7-H3-4Ig cells.

One may read the EC50 as the concentration that produces a half-maximal response. One may read the Kd as the free concentration of one partner at which half of the binding sites on the other are occupied at equilibrium, for simple one-to-one binding.

Sequence of human FcRn (P55899 24-297 limits assumed, form in doubt): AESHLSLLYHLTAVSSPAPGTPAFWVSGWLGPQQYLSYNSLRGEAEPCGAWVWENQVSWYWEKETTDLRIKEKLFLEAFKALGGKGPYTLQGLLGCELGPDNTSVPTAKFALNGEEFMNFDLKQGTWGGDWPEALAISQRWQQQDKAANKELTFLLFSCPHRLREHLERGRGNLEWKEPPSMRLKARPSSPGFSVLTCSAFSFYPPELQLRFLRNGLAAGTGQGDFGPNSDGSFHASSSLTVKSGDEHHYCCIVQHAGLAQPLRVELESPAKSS

B1: ADC 5 (2#8890-A-05, DAR 8) (antibody, human IgG1, kappa)
heavy: QVQLQESGPGLVQPSGTLSLTCAVSGGSDSSTNWWTWVRQSPGQGLEWIGEISPIGFTSYSPSLRSRVTISVDKSKTQFSLKLSSVTAADTAVYYCARDRLYFAFWGQGTLVTVSSASTKGPSVFPLAPSSKSTSGGTAALGCLVKDYFPEPVTVSWNSGALTSGVHTFPAVLQSSGLYSLSSVVTVPSSSLGTQTYICNVNHKPSNTKVDKKV[human IgG1 Fc with L234A L235A G237A (EU numbers) left out here]
light: EIVMTQSPATLSVSPGERATLSCRASQSVSSNLAWYQQKPGQAPRLLIYGASTRATGIPDRFSGSGSGTEFTLTISSLESEDFAVYYCQQYNNWPITFGQGTRLEIKRTVAAPSVFIFPPSDEQLKSGTASVVCLLNNFYPREAKVQWKVDNALQSGNSQESVTEQDSKDSTYSLSSTLTLSKADYEKHKVYACEVTHQGLSSPVTKSFNRGEC
modifications: cysteine sulfhydryls carry drug-linker A-05 (sites not stated; DAR 7.90 per antibody)
As to B1, the binding result with rat B7-H3-his protein is given as “no binding (tested: 200 nM (highest antigen concentration))”; in the assay with rat B7-H3 on CHO-S cells, “no binding (tested: 10 ug/ml (highest concentration))”; in [5] it was “no binding (tested: 5000 nM (highest concentration))”. Further, the EC50 was 2.33 ng/mL in [1]; 2.33 ng/mL in [2]; 7.58 ng/mL in assay [6]; 3.13 ng/mL in assay [7]; 41.5 ng/mL in assay [10]. The Kd in [3] was determined as 0.588 nM; in assay [4] it was 23.4 nM; with human FcRn, 14.5 nM. For the same molecule, in assay [8], the “IC50 (nM), in vitro cytotoxicity on Calu6-B7-H3 cells (CCK8)” value turned out to be 0.253 nM. Also, the “IC50 (nM), in vitro cytotoxicity on U87MG-B7-H3 cells (CCK8)” value in [8] was 0.0865 nM. In assay [9], the “IC50 (nM), in vitro cytotoxicity on A375 cells (CCK8)” value was found to be 0.475 nM.

B2: ADC 9 (2#8890-A-14, DAR 8) (antibody, human IgG1, kappa)
heavy: B1 heavy
light: B1 light
modifications: cysteine sulfhydryls carry drug-linker A-14 (sites not stated; DAR 7.22 per antibody)
B2: the binding result with rat B7-H3-his protein was “no binding (tested: 200 nM (highest antigen concentration))”; with rat B7-H3 on CHO-S cells it was “no binding (tested: 10 ug/ml (highest concentration))”; in assay [5], “no binding (tested: 5000 nM (highest concentration))”. The concentration giving a half-maximal response (EC50) amounted to 5.66 ng/mL in [1]; 5.95 ng/mL in assay [2]; 13.1 ng/mL in assay [6]; 7.26 ng/mL in [7]; 46 ng/mL in assay [10]. In addition, the Kd in assay [3] is 0.412 nM; in [4], 23 nM; with human FcRn, 15 nM. Besides, the “IC50 (nM), in vitro cytotoxicity on Calu6-B7-H3 cells (CCK8)” value in assay [8] is 0.328 nM. Moreover, the “IC50 (nM), in vitro cytotoxicity on U87MG-B7-H3 cells (CCK8)” value in [8] was determined as 0.0975 nM. In addition, the “IC50 (nM), in vitro cytotoxicity on A375 cells (CCK8)” value in assay [9] came to 2.64 nM.

B3: ADC 11 (2#8890-B-01, DAR 8) (antibody, human IgG1, kappa)
heavy: B1 heavy
light: B1 light
modifications: cysteine sulfhydryls carry drug-linker B-01 (sites not stated; DAR 7.75 per antibody)
Turning to B3, binding with human FcRn was put at a Kd of 10.7 nM.

B4: ADC 3 (2#8890-M-01, DAR 4) (antibody, human IgG1, kappa)
heavy: B1 heavy
light: B1 light
modifications: cysteine sulfhydryls carry drug-linker M-01 (sites not stated; DAR 3.89 per antibody)
Molecule B4 displayed a Kd in the assay with human FcRn of 15.1 nM.
